Assay results taken from PubChem BioAssay AID360 (National Center for Advancing Translational Sciences (NCATS), 2006).
The campaign covered roughly 48,000 compounds. About 550 (1.1%) were called active. About 4% were inconclusive and are not listed. Rule as the data show it: active = potency below about 15 µM; inconclusive = mostly about 16 µM to 33 µM; inactive = weaker than that. This is one part of the list.

target: Lysosomal acid glucosylceramidase (Homo sapiens) (UniProt P04062); assay: Glucocerebrosidase; settings: purified enzyme, resorufin glucoside fluorescence (screen aimed at inhibitors), 20 min; series mostly up to 77 µM;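 also: the screen sought inhibitors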
Outline: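 Normal human glucocerebrosidase (0.2 nM final) was assayed with resorufin β-D-glucopyranoside (30 uM final) in 50mM citric acid/KH2PO4, 10mM sodium taurocholate, 0.01% tween-20, pH 5.9. Compounds were titrated; fluorescence (Ex 548, Em 600) read after 20 min at RT.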
Potency is read from the fitted curve at half-maximal effect.

Sequence of UniProt P04062 (P04062 whole entry, looked up): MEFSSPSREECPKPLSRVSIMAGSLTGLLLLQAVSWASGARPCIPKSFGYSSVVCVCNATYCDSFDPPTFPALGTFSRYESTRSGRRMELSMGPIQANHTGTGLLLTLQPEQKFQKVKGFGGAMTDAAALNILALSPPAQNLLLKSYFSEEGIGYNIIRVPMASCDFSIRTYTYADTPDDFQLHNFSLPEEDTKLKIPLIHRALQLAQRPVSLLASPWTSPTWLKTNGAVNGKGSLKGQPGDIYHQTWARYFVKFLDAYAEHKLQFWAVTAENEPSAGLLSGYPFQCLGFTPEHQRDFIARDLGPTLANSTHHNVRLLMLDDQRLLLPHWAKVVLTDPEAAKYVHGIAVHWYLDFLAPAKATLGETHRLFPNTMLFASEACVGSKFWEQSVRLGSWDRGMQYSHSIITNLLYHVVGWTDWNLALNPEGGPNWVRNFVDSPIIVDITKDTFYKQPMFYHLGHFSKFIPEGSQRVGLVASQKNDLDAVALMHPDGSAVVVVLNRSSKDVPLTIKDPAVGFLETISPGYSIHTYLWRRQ

Potency, inactive:
CC1(C)CC(=O)c2cc(OCC(=O)O)ccc2O1 > 76.9 µM
Cc1cc2ccccc2c(=O)n1CC(=O)NCC(=O)N(C)Cc1ccccc1 > 76.9 µM
CC(=O)c1cccc(N=C2C(=O)Nc3ccccc32)c1 > 76.9 µM
CS(=O)(=O)N1CCN(C(=O)c2cc(-c3ccncc3)nc3ccc(Cl)cc23)CC1 > 76.9 µM
Clc1ccc2c(c1)CNc1c(ncnc1N1CCOCC1)O2 > 76.9 µM
CC(C)CCNC(=O)CN(CC1CCCO1)C(=O)CCC(=O)Nc1ccccn1 (stereo unspecified) > 76.9 µM
COc1cccc(/C(O)=C2/C(=O)C(=O)N(CCN3CCOCC3)C2c2cccnc2)c1 (stereo unspecified) > 76.9 µM
Cc1ccc2nc(C(F)OC(F)(F)F)[nH]c2c1 (stereo unspecified) > 76.9 µM
Cc1ccc(N2CC(C(=O)Nc3nccs3)CC2=O)cc1 (stereo unspecified) > 76.9 µM
C=C(C)n1c(=O)[nH]c2ccccc21 > 76.9 µM
CCc1c(O)nc(SCC(=O)Nc2ccc3c(c2)CCC3)[nH]c1=O > 76.9 µM
C=CCNC(=O)CSc1ccc(Cl)cc1 > 76.9 µM
CC(=O)c1cccc(NC(=O)CCS(=O)(=O)c2cccc3nonc23)c1 > 76.9 µM
O=C(CCC1N=C2c3ccccc3N=C(SCc3ccc(Cl)cc3)N2C1=O)NCc1ccco1 (stereo unspecified) > 76.9 µM
CC1(C)Oc2ccc(C(=O)N3CCOCC3)cc2N(CC(=O)Nc2ccccc2)C1=O > 76.9 µM
Cc1noc(C)c1C(=O)NC(C)C1CCCO1 (stereo unspecified) > 76.9 µM
c1ccc(-c2cnnc(N3CCCCC3)n2)cc1 > 76.9 µM
Cc1ccc2[nH]c(=O)c(CN(CC3CCCO3)S(=O)(=O)c3c(C)ccc4nsnc34)cc2c1 (stereo unspecified) > 76.9 µM
CCCCC(NC(C)=O)c1nc2ccccc2n1CCC (stereo unspecified) > 76.9 µM
CCN(CC)S(=O)(=O)c1ccc(S(=O)(=O)Nc2ccc(C(=O)N3CCCC3)cc2)cc1 > 76.9 µM
O=C(NCc1ccncc1)c1c(F)c(F)c(F)c(F)c1F > 76.9 µM
Cc1cc(N2C(=O)C(O)=C(C(=O)c3ccc(C)o3)C2c2cccs2)no1 (stereo unspecified) > 76.9 µM
CC(C)OC(=O)c1cccc(C(=O)O)n1 > 76.9 µM
Cc1cc(NC(=O)C2CC(c3cccc(Br)c3)=NO2)no1 (stereo unspecified) > 76.9 µM
O=C(OCC(=O)N1CCN(C(=O)c2ccco2)CC1)c1cc(=O)c2ccccc2o1 > 76.9 µM
CCC(Sc1ncccc1C(=O)O)C(=O)N1CCOCC1 (stereo unspecified) > 76.9 µM
O=C(Cc1cccs1)NCc1ccncc1 > 76.9 µM
CCOc1ccc2nc(NC(=O)c3cnccn3)sc2c1 > 76.9 µM
CCOC(=O)c1c(C)[nH]c(C(=O)OC/C(O)=C(\C#N)c2nc3ccccc3[nH]2)c1C > 76.9 µM
COc1ccc(C(CC(=O)O)NC(=O)c2ccco2)cc1OC (stereo unspecified) > 76.9 µM
CCN1C(=O)N(CN2CCOCC2)C2C1N(CN1CCOCC1)C(=O)N2CC (stereo unspecified) > 76.9 µM
CCOc1ccc(C(=O)c2cccs2)cc1 > 76.9 µM
O=C(CCCn1c(=O)c2sccc2n(Cc2ccc(F)cc2)c1=O)NCc1ccco1 > 76.9 µM
COc1ccccc1C1CC(c2ccccc2)Nc2ncnn21 (stereo unspecified) > 76.9 µM
Cc1ccc(S(=O)(=O)c2cc3c(=O)n4ccccc4nc3n(Cc3ccco3)c2=N)cc1 > 76.9 µM
COCC(=O)Nc1nc2ccc(C)cc2s1 > 76.9 µM
COc1ccccc1CNC(=O)COc1ccccc1OC > 76.9 µM
CCCCCc1c(C)nc(N2CCc3ccccc32)[nH]c1=O > 76.9 µM
CCCS(=O)(=O)N1CCCC(C(=O)NC2CCCCC2)C1 (stereo unspecified) > 76.9 µM
COc1ccccc1-c1nn2c(C(F)(F)F)nnc2s1 > 76.9 µM
CCCCOc1c(Cl)cc(CNC(C)(C)CO)cc1OCC > 76.9 µM
c1csc(-c2cnc3n2CCCC3)c1 > 76.9 µM
CCOC(=O)Nc1ccc2c(c1)ncn2C1CCCCC1 > 76.9 µM
COC(=O)Cn1c(=O)cnc2ccccc21 > 76.9 µM
CCc1ccc(NC(=O)CSc2nc3ccccc3c(=O)n2CCN2CCOCC2)cc1 > 76.9 µM
COc1ccccc1Cn1c(CCCO)nc2ccccc21 > 76.9 µM
O=C(Nc1ccc2c(c1)OCO2)c1cccc(F)c1 > 76.9 µM
O=S(=O)(c1ccccc1)N1CCN(c2nnnn2-c2ccccc2)CC1 > 76.9 µM
O=C1CCCN1C(=O)CCC(=O)N1CCCC1=O > 76.9 µM
CCOCCCNC(=O)C(NC(=O)c1cnccn1)c1ccc(OC)cc1 (stereo unspecified) > 76.9 µM
Cc1nnc(NC(=O)C2CCCO2)s1 (stereo unspecified) > 76.9 µM
CCOC(=O)C1CCCN(Cc2nc(N)nc(Nc3ccc(OC)cc3)n2)C1 (stereo unspecified) > 76.9 µM
CCOC(=O)C1CCN(S(=O)(=O)c2ccc(-c3nc4ccccc4s3)s2)CC1 > 76.9 µM
COc1ccc(C2C(C(=O)NCC3CCCO3)c3cc(OC)c(OC)cc3C(=O)N2C)cc1OC (stereo unspecified) > 76.9 µM
Cn1c(/C=C/N2CCOCC2)c(C(=O)c2ccc(Br)cc2)c(=O)n(C)c1=O > 76.9 µM
O=C(NC1CCCC1)C1C2C=CC(C2)C1C(=O)N1CCOCC1 (stereo unspecified) > 76.9 µM
O=C(Cn1cnc2ccccc2c1=O)NC1CCCc2ccccc21 (stereo unspecified) > 76.9 µM
Cn1c(=O)c2c(nc(CN3CCN(c4ccccc4)CC3)n2CCCc2ccccc2)n(C)c1=O > 76.9 µM
COc1ccc(Cl)c(NC(=O)Cn2nnc(-c3ccccc3N)n2)c1 > 76.9 µM
O=C(NC(Cc1ccccc1)C(=O)OCC(=O)N1CCc2ccccc21)c1ccco1 (stereo unspecified) > 76.9 µM
CCOc1ccc(CNC(=O)C2CCN(S(=O)(=O)CC)CC2)cc1OC > 76.9 µM
c1ccc(Cn2nnnc2C(c2cccnc2)N2CCN(C3CCCCC3)CC2)cc1 (stereo unspecified) > 76.9 µM
COCCN(C(=O)Cc1cccs1)c1nnc(-c2cccnc2)s1 > 76.9 µM
COc1ccc(S(=O)(=O)NCCc2csc(C)n2)cc1C > 76.9 µM
COc1ccc(C2NC(=O)c3ccccc3O2)c(OC)c1OC (stereo unspecified) > 76.9 µM
CCc1nnc(NC(=O)CSc2nc3c(cc2C#N)CCCC3)s1 > 76.9 µM
O=c1[nH]c(CSc2nc3ccccc3o2)nc2c1cnn2-c1ccccc1 > 76.9 µM
Cc1nc(CC(=O)Nc2nc(C(C)(C)C)cs2)cs1 > 76.9 µM
Cn1c(SCC(N)=O)nnc1C1CCN(C(=O)NCc2ccccc2)CC1 > 76.9 µM
Cc1ccc2c(c1)sc1ncc(NC(=O)c3ccccc3)c(=O)n12 > 76.9 µM
CC1(C)CC(=O)C2=C(C1)N(CC1CCCO1)C(=O)NC2(C(F)(F)F)C(F)(F)F (stereo unspecified) > 76.9 µM
CCOC(=O)CSc1nnc(CNC(=O)c2ccc(S(=O)(=O)N3CCCCC3)cc2)n1C > 76.9 µM
O=C(Cn1nc(C(F)(F)F)c2c1CCCCC2)N1CCOCC1 > 76.9 µM
Cc1ccc(NC(=O)C2CCCN(c3ncccn3)C2)cc1F (stereo unspecified) > 76.9 µM
Cc1cc(NC(=O)c2ccccc2F)n(-c2nc3ccccc3[nH]2)n1 > 76.9 µM
COc1ccc(S(=O)(=O)Nc2cccc(SC)c2)cc1OC > 76.9 µM
Cc1ncoc1C(=O)Nc1cccc(Cl)c1 > 76.9 µM
COC(=O)Cn1c(=O)sc2ccccc21 > 76.9 µM
CCOC(=O)c1[nH]c(C)c(/C(O)=C2\C(=O)C(=O)N(CCN(C)C)C2c2ccncc2)c1C (stereo unspecified) > 76.9 µM
O=C(CCC(=O)c1cccs1)OCc1nc2ccccc2s1 > 76.9 µM
COc1cc(C2C(C#N)=C(N)Oc3n[nH]c(-c4ccccn4)c32)cc(OC)c1OC (stereo unspecified) > 76.9 µM
O=C(Nc1cc(C(=O)N2CCCC2)ccc1N1CCCC1)c1ccccc1 > 76.9 µM
COc1ccc(S(=O)(=O)N2CCOCC2)cc1C(=O)Nc1cc(C)on1 > 76.9 µM
COC(=O)c1cc(Br)c(=O)n(-c2ccc(OC)cc2)c1 > 76.9 µM
Cc1nc2ccccn2c1/C(O)=C1\C(=O)C(=O)N(CCN2CCOCC2)C1c1ccncc1 (stereo unspecified) > 76.9 µM
CCc1ccc2[nH]c(=O)c(CN(Cc3ccco3)S(=O)(=O)c3ccc4c(c3)OCCO4)cc2c1 > 76.9 µM
O=C(c1ccccc1)N(Cc1ccc2c(c1)OCO2)Cc1nc2ccccc2c(=O)[nH]1 > 76.9 µM
Cc1cccc2cc(C(c3nnnn3Cc3ccc4c(c3)OCO4)N3CCCC3)c(=O)[nH]c12 (stereo unspecified) > 76.9 µM
CCC(C)NC(=O)CC(c1ccc(OC)cc1)n1cccc1 (stereo unspecified) > 76.9 µM
CC(OC(=O)c1nsc(Cl)c1Cl)C(=O)NCc1ccco1 (stereo unspecified) > 76.9 µM
O=C(Cn1c(N2CCN(c3ccccc3)CC2)nc2ccccc21)c1ccccc1 > 76.9 µM
